# The inconclusive results got no clear call from the source; some entries with a clear call stand among them for comparison. Where a call stands in place of a potency, no number is given. For part of these data: Potencies beside an inconclusive call are fits to weak or partial responses and may not hold up. Activity calls are given as the source filed them. The call rests on the fitted dose curve; in most records, active means well fitted curve in the direction sought with a large enough effect; inconclusive means small, poorly fitted or top-dose-only effect, or another doubt; inactive means no such curve, though single readings can be large; an effect the other way counts as inactive or inconclusive.
# Columns and labels:
# [1] = P-glycoprotein substrates identified in KB-8-5-11 adenocarcinoma cell line, qHTS therapeutic library screen (AID 1346987); conditions: activity change, negative = cytotoxicity: at 44.5 µM (top of the series); further: nearly all actives have a fitted effect of over 65% in size
# Outline: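 KB-8-5-11, a colchicine-selected P-gp-overexpressing KB-3-1 subline, was grown without colchicine for the assay. Cells were seeded at 500 cells/well, dosed in concentration-response and incubated 72 h at 37 degree C, 5% CO2. Viability was read by CellTiter-Glo luminescence.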
# [2] = test system: Zika virus NS2B-NS3 protease (unlinked complex); test: Primary screen GU Rhodamine qHTS for Zika virus inhibitors: Unlinked NS2B-NS3 protease assay (AID 1347159); conditions: Recombinant ZIKV NS2B-NS3 protease, Rhodamine110 substrate fluorescence; activity change, negative = inhibition: at 107 µM (top of the series); further: nearly all actives have a fitted effect of over 60% in size; further: potency means the concentration at half of the fitted maximal effect
# Outline: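 A qHTS format was used, with compound concentrations ranging up to 114 microM. Each compound was preincubated with 25 nM NS2B-NS3 protease, and the substrate was then added at 1.5 microM. Curves were fitted with a 4-parameter Hill model.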
# [3] = test system: Zika virus NS2B-NS3 protease (linked construct); test: Primary screen NINDS Rhodamine qHTS for Zika virus inhibitors (AID 1347160); further: potency means the concentration at half of the fitted maximal effect; nearly all actives have a fitted effect of over 55% in size
# Outline: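 Kinetic fluorescence (Ex 480 nm, Em 540 nm) over 15 min with 1.5 microM Rhodamine110 peptide and 25 nM linked protease.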
# [4] = target: Phospholipid hydroperoxide glutathione peroxidase GPX4 (Homo sapiens) (UniProt P36969); test: Primary qHTS Assay for Inhibitors of Recombinant Selenoprotein Glutathione Peroxidase 4 (GPX4) (AID 1845192); conditions: activity change, negative = inhibition: at 50 µM (top of the series) unless noted; further: nearly all actives have a fitted effect of over 65% in size
# Sequence of UniProt P36969 (P36969 whole entry, looked up): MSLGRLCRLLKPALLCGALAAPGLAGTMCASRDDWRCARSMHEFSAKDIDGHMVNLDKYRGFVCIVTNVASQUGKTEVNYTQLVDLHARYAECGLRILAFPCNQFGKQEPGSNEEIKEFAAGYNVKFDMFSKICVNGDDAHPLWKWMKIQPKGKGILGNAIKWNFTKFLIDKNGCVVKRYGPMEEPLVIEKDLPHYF
# Outline: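 GR-coupled readout: 100 nM GR, 1 mM GSH, 0.5 mM NADPH; NADPH fluorescence (ex 340/em 450 nm) read at t=0 and after 15 min RT. GPX4 200 nM, preincubated 30 min with compound; substrate 0.5 mM CHP.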
# [5] = Primary fluorescence-based thiol-reactive (MSTI) qHTS assay for identification of artifact compounds. (AID 1845221);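 further: thiol-reactive compounds lower the probe fluorescence signal; nearly all actives have a fitted effect of over 65% in size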
# Outline: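 A multi-concentration qHTS design tested compounds against 4 uM MSTI, pH 7.4 phosphate-buffered saline. Plates were protected from light for 1 h at room temperature before imaging fluorescence.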
# Tags describe the fitted curve by direction and shape.
smiles,measurement,setting,value
COc1cc(CCc2ccccc2)c(C(=O)O)c2c1CC(C(C)(C)O)O2 (centres undefined),Potency,[1],inactive
same,Potency,[2],"inconclusive: 20 µM [inhibitor, partial curve, poor fit]"
same,Potency,[3],"inconclusive: 10 µM [inhibitor, partial curve, poor fit]"
same,Potency,[4],inactive
CC(=O)O[C@@H]1[C@H](O[C@@H]2O[C@H](CO)[C@@H](O)[C@H](O)[C@H]2O)[C@@H](O[C@@H]2O[C@@H](C)[C@H](O)[C@@H](O[C@@H]3O[C@H](CO)[C@@H](O)[C@H](O)[C@H]3O)[C@H]2O)[C@H](OC(=O)C23CCC4(C)C(=CCC5C6(C)CC(O)C(O[C@@H]7O[C@H](C(=O)O)[C@@H](O)[C@H](O)[C@H]7O)C(C)(C(=O)O)C6CCC54C)C2CC(C)(C)CC3O)O[C@@H]1C (some centres undefined),outcome,[1],inactive [at 9.29 µM]
same,"activity change, negative = inhibition",[2],inactive: 7.44% [at 19.1 µM]
C[C@H](O)C(O)(C(=O)OCc1ccccc1NC(=O)CCC(N)C(=O)O)[C@H](C)O (some centres undefined),Potency,[1],inactive
same,Potency,[2],inactive
same,Potency,[5],inactive
